# Test results as given in PubChem BioAssay (Tox21).
# Inconclusive results are not listed. Unless noted, the call rests on the fitted dose curve; in most records, active means well fitted curve in the direction sought with a large enough effect in the repeat runs; inconclusive means weak or mixed curves; inactive means no such curve, though single readings can be large; an effect the other way counts as inactive or inconclusive. Where a structure was tested more than once in an assay, its records may differ in their call. The source holds more than one record for some entries. Only these are listed. There may be further records. The records of an entry repeat one measurement across runs, samples, wells, individuals or studies. Marks in square brackets tell the records apart. The letters are not those of the source and start again with each entry.
# Legend:
# [1] = qHTS assay for small molecules that induce genotoxicity in human embryonic kidney cells expressing luciferase-tagged ATAD5 - cell viability (AID 651634; calls by dose curve; further: nearly all actives have a fitted effect of over 25% in size)
# Summary of the method: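 HEK293T cells expressing luciferase-tagged ATAD5 were exposed to compound or DMSO for 15.5 hr at 37C, 5% CO2. Viability was then read as live-cell protease activity by CellTiter-Fluor fluorescence after 30 min at 37C.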
# [2] = A CellTox Green Cytotoxicity Assay to monitor cytotoxicity in HEK293 cells - 24 hour (AID 1224875); further: nearly all actives have a fitted effect of over 45% in size
# Excerpt: (§1) National Center for Advancing Translational Sciences [NCATS]
# (§2) NIH Chemical Genomics Center [NCGC]
# (§3) U.S. Environmental Protection Agency [EPA]
# (§4) National Institutes of Environmental Health Sciences [NIEHS]
# (§5) National Toxicology Program [NTP]
# Cell-based models are critical for drug discovery. Determining the natural cytotoxic effects resulting from test compounds is an essential research activity. A CellTox Green Cytotoxicity Assay to monitor cytotoxicity in real time of continues cell culture during 40 hours of the compound treatment was used to screen Tox21 10K library compounds in Hek293 cells. CellTox Green Cytotoxicity Assay is a nonlytic, homogeneous, biofluorescent method to measure cytotoxicity in cell culture after experimental manipulation. The assay system uses a proprietary asymmetric cyanine dye that is excluded from viable cells but preferentially stains the dead cell's DNA. […] Viable cells produce no appreciable increases in fluorescence. Therefore, the fluorescence signal produced by the binding interaction with dead cell DNA is proportional to cytotoxicity.
# The mixture of Hek293 cell suspension and reagents were dispensed at 600cells/6 ul/well in 1536-well tissue culture treated black solid bottom plates using a Multidrop dispenser. […] The fluorescence intensity were measured at 0h, 8h, 16h, 24h, 32h and 40h time points using ViewLux plate reader during compound treatment.
# [3] = qHTS assay to identify small molecule antagonists of the androgen receptor (AR) signaling pathway using the MDA cell line - cell viability counter screen (AID 743041; further: nearly all actives have a fitted effect of over 45% in size)
# Excerpt: as §1, §2, §3, §4, §5
# U.S. Food and Drug Administration [FDA]
# Androgen receptor (AR), a nuclear hormone receptor, plays a critical role in AR-dependent prostate cancer and other androgen related diseases. Endocrine disrupting chemicals (EDCs) and their interactions with steroid hormone receptors like AR may cause disruption of normal endocrine function as well as interfere with metabolic homeostasis, reproduction, developmental and behavioral functions. To identify the compounds that inhibit AR signaling, MDA-kb2 AR-luc cell line (from ATCC, deposited by Wilson et al.) was used to screen the Tox21 10K compound library. […]
# MDA-kb2 AR-luc cells were dispensed at 3,000 cells/4 uL/well of culture medium into white wall/solid-bottom 1536-well plates using a Multidrop Combi (ThermoFisher Scientific, Waltham, MA) dispenser. […] The fluorescence intensity was quantified on a ViewLux plate reader (PerkinElmer, Shelton, CT) following 30 min incubation at 37C and 0% CO2.
# [4] = qHTS assay to identify small molecule antagonists of the TGF-beta/Smad signaling pathway - cell viability counter screen (AID 1346824); further: nearly all actives have a fitted effect of over 50% in size
# Summary of the method: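 SBE-bla HEK 293T cells were plated overnight at 37 C, then given compounds in DMSO plus TGF-beta1 (added as 0.25 ng/mL solution) for 5 hr. After the bla read, CellTiter-Glo was added to the same wells and luminescence read after 30 min at room temperature.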
# [5] = qHTS assay to identify small molecule antagonists of the peroxisome proliferator-activated receptor gamma (PPARg) signaling pathway - cell viability counter screen (AID 743194); further: nearly all actives have a fitted effect of over 55% in size
# Summary of the method: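 PPARg-UAS-bla HEK293H cells were plated, rested 5 h at 37 C, then treated with compounds plus rosiglitazone (50 nM final) for 17 h at 37 C; viability was then read by CellTiter-Glo luminescence after 30 min at room temperature.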
# Potency means the concentration at half of the fitted maximal effect.
compound,measurement,setting,value
C[C@]12C/C(=C/O)C(=O)C[C@@H]1CC[C@@H]1[C@@H]2CC[C@@]2(C)[C@H]1CC[C@]2(C)O,Potency,[1],inactive [sample A] and active: 43.7 µM [sample B]
same,Potency,[2],active: 24.8 µM [sample A] and inactive [sample B]
O.O.O.O.O.O.O.O=S(=O)([O-])[O-].[Co+2],Potency,[1],active: 26.6 µM [sample A] and inactive [sample B]
CC(C)N(C(=O)CCl)c1ccccc1,Potency,[3],inactive [sample A] and active: 54.5 µM [sample B]
same,Potency,[4],inactive [sample A] and active: 49 µM [sample B]
CN(C)C(=S)SSC(=S)N(C)C,Potency,[5],inactive [sample A] and active: 29.8 µM [sample B]
